Measurements reported in paper PMC12136788.
Some of the results follow.

B1: chr4:86814747:86814848:+|3pUTR|ENSG00000163629|unk|FALSE|unique (ssRNA)
RNA: GGGAGUUCUACAGUCCGACGAUCUACUUUAACCUAUGAUAAUUAUUUACAAAAUUUUAACACUAACCAAACAAUGCAGAUCUUAGGGAUGAUUAAAGGCAGCAUUUGAUGAUAGCAGACAUUGUUACAAGGACAUGGUGAGUCCAACAGAGGAUUGAGCAUCA
B2: chr3:7579146:7579247:+|CDS|ENSG00000196277|unk|FALSE|unique (ssRNA)
RNA: GGGAGUUCUACAGUCCGACGAUCGCCAGAGGGGUUCUCAAGUGUGACAUUACAGAUCUCCAAAUCAUUUGCUCCUUGGGAUAUAGCAUUCUUCUCAUGGUCACAUGUACUGUGUAUGCCAUCAAGACUCGGGGUGUACCCGAGCAACAGAGGAUUGAGCAUCA
B3: ENSG00000100242:stop:overlap|stop_codon|ENSG00000100242|stop_codon|NA|stop_codon (ssRNA)
RNA: GGGAGUUCUACAGUCCGACGAUCGGGGCCACCCCGAGUACACCUGCAUCUACCGCUUCAGAGUGCAUGGGGAGCCCGCCCACUAGCCCUGCUUACUGGUGCCUGCUGCCAGCCAUCUGGGAGUGGGUGAACAGCACCCCGCCGCAACAGAGGAUUGAGCAUCA
B4: ENSG00000107863:be:win_5551|CDS|ENSG00000107863|bound_else_gene|NA|bound_elsewhere_windowed (ssRNA)
RNA: GGGAGUUCUACAGUCCGACGAUCGACUGGCUGGCCAGGGAACGCCUACGCACCAGUACCUCUGACCUUAGCAGAGGAGAAAUCGGAGAUCCCCAGACAGAGAACCCAAGCACACGAGAAAUAGCCACGACCGACACACCUUUGCAACAGAGGAUUGAGCAUCA
B5: ENSG00000151892:stop:overlap|stop_codon|ENSG00000151892|stop_codon|NA|stop_codon (ssRNA)
RNA: GGGAGUUCUACAGUCCGACGAUCCACUGCUGGUCCUGGUGGUAACCGCUCUGUCCACCCUAUUAUCUUUAACAGAAACAUCAUAGCUGCAUUAAAAAAAUACAAUAUGGACAUGUAAAAAGACAAAAACCAAGUUAUCUGUUUCAACAGAGGAUUGAGCAUCA
B6: chr12:25205306:25205412:-|3pUTR|ENSG00000133703|unk|FALSE|unique (ssRNA)
RNA: GGGAGUUCUACAGUCCGACGAUCGUCAUAUCAAACAUUAAAAAUGACCACUCUUUUAAUUGAAAUUAACUUUUAAAUGUUUAUAGGAGUAUGUGCUGUGAAGUGAUCUAAAAUUUGUAAUAUUUUUGUCAUGAACUGUACUACCAACAGAGGAUUGAGCAUCA
B7: chr17:63354981:63355093:+|CDS|ENSG00000170921|unk|FALSE|bound_elsewhere (ssRNA)
RNA: GGGAGUUCUACAGUCCGACGAUCCAGUCAAGGGUCCUAUCUAUAUCUGAAACUUACAUUUGACCUCAUAGAGAAAGGCUAUCUAGUGUUAAAGAGCUCUAGCUACAAAGUAGUUCCUGUUUCGCUCUCAGAGGUUUAUUUACUCAACAGAGGAUUGAGCAUCA
B8: chr18:55223968:55224079:-|3pUTR|ENSG00000196628|unk|total|mutant (ssRNA)
RNA: GGGAGUUCUACAGUCCGACGAUCUAUAAAGCUUUGUUUGUCCCGUGCUCUUUUGCUAUAAAACCGACUGCCGUACACCCCCGCCGGAAAAAAAAAAAACUAAAUUUAAAAAUAAAAAAUAUAUUUGGCUUAUUUUUCGCAGGACAACAGAGGAUUGAGCAUCA
B9: chr17:3662948:3663056:-|3pUTR|ENSG00000213977|unk|total|mutant (ssRNA)
RNA: GGGAGUUCUACAGUCCGACGAUCAGUUUGAUACAAAAUGUUUUUAUCGUACUCUUUGGAGAUGCCCAUUCUACUUUUGAAUUCCGCUUUUACUAAUUCGCAUCUGGAAGCUCAGCAAGUGCACAAGCCUUACUUUGGUUACCGCAACAGAGGAUUGAGCAUCA
B10: chr10:74120044:74120145:+|3pUTR|ENSG00000035403|msi1|FALSE|unique (ssRNA)
RNA: GGGAGUUCUACAGUCCGACGAUCAAAAAAAAUCCCUGAAUGAUGAUUAGAGACAUCACCGCUAAAAAACUACAUUUAUAAGCUAGGAUUUGUUAUAUGCAAAUAUUUUCUGCCUCUUCUUUUGUUCUGUUUAAAACAAUAAAACAACAGAGGAUUGAGCAUCA
B11: chr10:119072878:119073036:-|CDS|ENSG00000107581|unk|total|mutant (ssRNA)
RNA: GGGAGUUCUACAGUCCGACGAUCCUUUUAACUCCAUGGGUUAAAUUCCUGUGGGAGUCUUACAGGCAGUGUUUGGACCUUCUCCGAAACAAUUCCCGAGCCGAGCGCCUGUACCAUGAUAUUGCCCAGCAAGGUAAGAUGAGACAACAGAGGAUUGAGCAUCA
B12: chr17:48058596:48058697:+|CDS|ENSG00000082641|msi1|FALSE|unique (ssRNA)
RNA: GGGAGUUCUACAGUCCGACGAUCCAAUGGCACAGCCAAUGACACAGCAGGCCCAGAGCUGCCUGACCCUUUGGGGGGUCUGUUAGAUGAAGCUAUGUUGGAUGAGAUCAGCCUUAUGGACCUGGCCAUUGAAGAAGGCUUUAACAACAGAGGAUUGAGCAUCA
B13: chr9:21140631:21140982:-|three_prime_utr|ENSG00000177047|control|control|control (ssRNA)
RNA: GGGAGUUCUACAGUCCGACGAUCGUGACUCUGGUCAAUUCAAAAGACUCUUAUUUCGGCUUUAAUCACAGAAUUGACUGAAUUAGUUCUGCAAAUACUUUGUCGGUAUAUUAAGCCAGUAUAUGUUAAAAAGACUUAGGUUCACAACAGAGGAUUGAGCAUCA
B14: ENSG00000107863:be:win_951|CDS|ENSG00000107863|bound_else_gene|NA|bound_elsewhere_windowed (ssRNA)
RNA: GGGAGUUCUACAGUCCGACGAUCCACAUCACCACCAUUAUCAAUUCCCACCACUCAUCUAAUUCAUCAGCCUGCAGGCUCCAGAUCACUGGAACCUUCUGGAAUUUUACUUAAGUCUGGAAAUUACAGUGGACAUUCUGAUGGCAACAGAGGAUUGAGCAUCA

What follows are binders tested against MSI1 full-length (mouse, UniProt Q61474 1-362) (assay: nsRBNS (natural sequence RNA bind-n-seq); RBNS binding buffer (assumed for nsRBNS): 25 mM Tris pH 7.5, 150 mM KCl, 3 mM MgCl2, 0.01% Triton X-100, 500 ug/ml BSA, 20 U/ml SUPERase-In, 4 C; UNK is unkempt and MSI1 is Musashi-1; names of the RNAs are library labels; protein concentration not given here; high values mean tight binding).
Chain of UniProt Q61474 (Q61474 whole entry): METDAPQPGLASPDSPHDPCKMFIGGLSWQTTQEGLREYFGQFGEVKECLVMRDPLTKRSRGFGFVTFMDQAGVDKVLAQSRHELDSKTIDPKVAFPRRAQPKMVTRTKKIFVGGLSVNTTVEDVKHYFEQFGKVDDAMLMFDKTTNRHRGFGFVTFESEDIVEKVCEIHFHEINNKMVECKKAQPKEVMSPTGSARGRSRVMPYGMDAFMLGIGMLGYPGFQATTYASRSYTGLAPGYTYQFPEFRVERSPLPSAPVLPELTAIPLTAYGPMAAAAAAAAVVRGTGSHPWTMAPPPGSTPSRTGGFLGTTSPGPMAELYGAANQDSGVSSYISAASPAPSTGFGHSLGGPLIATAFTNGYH

**Q.** With B1 as the binder, how does the binding signal read?
**A.** Its binding signal is 5.27 enrichment R.

**Q.** B2 was tested. Which binding signal did it give?
**A.** The binding signal was 0.423 enrichment R.

**Q.** Which binding signal does the source give for B3 here?
**A.** Its binding signal is 0.497 enrichment R.

**Q.** For B4, which binding signal is on record?
**A.** Its binding signal is 0.543 enrichment R.

**Q.** With B5 as the binder, how does the binding signal read?
**A.** Its binding signal is 0.311 enrichment R.

**Q.** How did the binding signal turn out when B6 was run?
**A.** The binding signal was 0.678 enrichment R.

**Q.** With B7 as the binder, how does the binding signal read?
**A.** The binding signal was 2.03 enrichment R.

**Q.** B8 was tested. Which binding signal did it give?
**A.** The binding signal was 0.505 enrichment R.

**Q.** B9 was tested. Which binding signal did it give?
**A.** The binding signal was 0.314 enrichment R.

**Q.** With B10 as the binder, how does the binding signal read?
**A.** Its binding signal is 4.59 enrichment R.

**Q.** Which binding signal does the source give for B11 here?
**A.** The binding signal was 0.197 enrichment R.

**Q.** How did the binding signal turn out when B12 was run?
**A.** Its binding signal is 0.367 enrichment R.

**Q.** How did the binding signal turn out when B13 was run?
**A.** The binding signal was 0.985 enrichment R.

**Q.** B14 was tested. Which binding signal did it give?
**A.** Its binding signal is 0.418 enrichment R.
